The campaign covered roughly 360,000 compounds. About 520 (0.14%) were called active. The inconclusive results got no clear call from the source; some entries with a clear call stand among them for comparison. Calls follow the shape of the dose curve; as a rule, active = well fitted inhibition curve with a large enough effect; inconclusive = small, poorly fitted or top-dose-only effect; inactive = no such curve, though single readings can be large or run the other way. Where the call is inconclusive, the potency comes from a doubtful curve fit.
These compounds were tested against Rap guanine nucleotide exchange factor 3 (Homo sapiens) (UniProt O95398) (assay: qHTS for Antagonist of cAMP-regulated guanine nucleotide exchange factor 3 (EPAC1): primary screen). Details: EPAC1 GEF assay, Rap1b-BODIPY-GDP exchange fluorescence; activity change, negative = inhibition: at 115 µM (top of the series).
Chain of UniProt O95398 (O95398 whole entry, looked up): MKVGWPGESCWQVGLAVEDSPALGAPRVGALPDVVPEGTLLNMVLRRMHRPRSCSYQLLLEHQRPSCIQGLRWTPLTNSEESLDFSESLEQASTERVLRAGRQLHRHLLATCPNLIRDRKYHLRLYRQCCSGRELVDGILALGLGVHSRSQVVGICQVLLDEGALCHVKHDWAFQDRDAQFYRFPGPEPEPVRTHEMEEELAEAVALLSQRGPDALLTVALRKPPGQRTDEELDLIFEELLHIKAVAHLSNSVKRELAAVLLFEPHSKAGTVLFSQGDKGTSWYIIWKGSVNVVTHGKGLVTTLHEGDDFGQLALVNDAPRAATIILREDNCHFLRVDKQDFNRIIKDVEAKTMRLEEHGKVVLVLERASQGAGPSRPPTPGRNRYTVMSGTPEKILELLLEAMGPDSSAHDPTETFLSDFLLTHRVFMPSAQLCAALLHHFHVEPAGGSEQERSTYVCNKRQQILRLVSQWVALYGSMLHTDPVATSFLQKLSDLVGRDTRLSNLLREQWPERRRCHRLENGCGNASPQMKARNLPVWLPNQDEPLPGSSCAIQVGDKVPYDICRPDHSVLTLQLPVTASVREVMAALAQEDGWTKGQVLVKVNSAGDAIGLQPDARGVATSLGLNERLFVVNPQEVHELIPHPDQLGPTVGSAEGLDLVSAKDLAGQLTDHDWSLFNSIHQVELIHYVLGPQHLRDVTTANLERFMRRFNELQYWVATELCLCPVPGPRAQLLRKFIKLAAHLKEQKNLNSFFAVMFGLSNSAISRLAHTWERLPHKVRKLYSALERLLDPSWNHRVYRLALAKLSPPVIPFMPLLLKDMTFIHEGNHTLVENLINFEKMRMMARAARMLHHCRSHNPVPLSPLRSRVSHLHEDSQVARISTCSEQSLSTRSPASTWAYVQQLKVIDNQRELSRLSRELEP
Also: nearly all actives have a fitted effect of over 50% in size.
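For activity change, negative = inhibition in this document: plate controls were vehicle for no effect and positive control for full effect.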
Potency is read from the fitted curve at half-maximal effect; tags tell the direction and shape of the fitted curve.

Potency, inactive:
COc1cc(OC)c(NC2=CC(=O)C(=O)c3ccccc32)cc1Cl, O=C1CCCN1CCC12CC3CC(CC(C3)C1)C2, CCN1CCCc2cc(CN(CCN3CCOCC3)C(=S)Nc3cccc(OC)c3)ccc21, CN(Cc1cn(C)nc1-c1ccc(Oc2ccccc2)cc1)CC1COCCO1 (stereo unspecified), N#C/C(=C/c1ccccc1)C(=O)NCc1ccccc1, COc1ccc(-c2csc(NC(=O)CSc3nc(C)cs3)n2)cc1, CN(C)CCCN(C(=O)c1ccc2c(c1)CCCC2)c1nc2ccc(F)cc2s1, CCOC(=O)C1CCN(Cc2coc3c(Cl)cc(Cl)cc3c2=O)CC1, Cc1ccc(NC(=O)CN(C)C(=O)CSc2nc(C)cc(C)n2)cc1, CCCOC1CCCN(C(=O)c2ccc(OC)c(OC3CCN(C(C)C)CC3)c2)C1 (stereo unspecified), O=C(NCC1CCCO1)c1cncc(Br)c1 (stereo unspecified), COC(=O)CCCCCN1C(=O)/C(=C\c2ccncc2)SC1=S, COc1cccc(C#Cc2c(C=O)n(C)c3ccccc23)c1, Cc1ccc(/C=C(\NC(=O)c2ccc(C)cc2)C(=O)NCCCn2ccnc2)cc1, CC(Sc1nc2c(c(=O)[nH]1)CCCC2)C(=O)Nc1ccc(Br)cn1 (stereo unspecified), COc1ccc(S(=O)(=O)NCC2CCCN(C(=O)c3ccccc3)C2)cc1 (stereo unspecified), NNC(=O)Cc1cccc2ccc(Cl)cc12, COc1ccccc1N(C)S(=O)(=O)c1ccc(C(=O)OCC(=O)Nc2cc(C)on2)cc1, COC(=O)[C@]1(C)N[C@H](CN(C)C(=O)Nc2ccccc2)[C@@H]2C(=O)N(C)C(=O)[C@@H]21

Potency, inconclusive:
COc1ccccc1C1CCN(Cc2ccc3ccccc3c2)CC1 10 µM [inhibitor, partial curve], COc1ccc(OC)c(S(=O)(=O)n2cnc3cc(C)c(C)cc32)c1 15.8 µM [inhibitor, full curve], O=C(CSc1ncn(-c2ccccc2)n1)Nc1nncs1 89.1 µM [inhibitor, single point], O=C(O)c1ccc(-n2cccc2/C=N\NC(=O)c2cc3cc(Br)ccc3o2)cc1 56.2 µM [inhibitor, partial curve, poor fit], O=C(NCCN1CCC(n2c(=O)[nH]c3ccccc32)CC1)c1ccc(C(F)(F)F)cc1C(F)(F)F 100 µM [inhibitor, single point], COc1ccccc1CNC(=O)c1cc(-c2ccc(F)cc2C)n[nH]1 79.4 µM [inhibitor, partial curve], Cc1ccc(C)n1C(CC(=O)O)c1ccc(C#N)cc1 (stereo unspecified) 100 µM [inhibitor, single point], COc1cc(OC)c(OC)cc1CN1CCN(Cc2ccc(SC)cc2)CC1 100 µM [inhibitor, single point], Cc1ccc(/C=c2\sc3nc(-c4ccco4)nn3c2=O)o1 44.7 µM [inhibitor, partial curve], Cc1ccc(C(=O)OC(C)CN2CCOCC2)cc1 (stereo unspecified) 100 µM [inhibitor, single point], COc1ccc(CN(C)C(=O)/C=C/c2ccc(S(=O)(=O)N3CCOCC3)cc2)cc1F 89.1 µM [inhibitor, single point], Cc1sc2nc(CN(C(=O)NCc3ccccc3)C3CCCC3)[nH]c(=O)c2c1C 39.8 µM [inhibitor, partial curve], C=CCN(c1ccccc1OC)S(=O)(=O)c1cccc(C(=O)OCC(=O)N2CC(C)OC(C)C2)c1 (stereo unspecified) 35.5 µM [inhibitor, full curve], Cc1ccccc1C(=O)NCCCNC(=O)c1cnccn1 89.1 µM [inhibitor, single point], Cc1ccccc1OCC1Cn2c(nc3c2c(=O)n(C)c(=O)n3C)O1 (stereo unspecified) 50.1 µM [inhibitor, partial curve], O=C(c1ccccc1)C1CCN(C(=O)Nc2ccccc2)CC1 39.8 µM [inhibitor, partial curve, poor fit], O=c1/c(=C\c2cc([N+](=O)[O-])cc([N+](=O)[O-])c2O)sc2nc3ccccc3n12 79.4 µM [inhibitor, single point], COc1cccc(/C=C/C(=O)OCC(=O)Nc2cccc(S(=O)(=O)N(C)C)c2)c1 100 µM [inhibitor, single point], O=C(NCc1cccnc1)c1ccc(NC(=O)c2ccc([N+](=O)[O-])cc2)cc1 8.91 µM [inhibitor, partial curve], COc1cc(O)cc(O)c1C(=O)/C=C/c1ccccc1 70.8 µM [inhibitor, partial curve], O=C(Nc1ccccc1)c1ccc2nc(-c3ccco3)c(-c3ccco3)nc2c1 89.1 µM [inhibitor, partial curve, poor fit], O=C(c1cc(-c2ccc(Br)cc2)n[nH]1)N1CCN(C(=O)c2ccccc2Br)CC1 56.2 µM [inhibitor, partial curve], CN1OC[C@@H]2CN(C(=O)c3ccco3)[C@H](c3ccc(-c4ccc(C#N)cc4)cc3)C[C@@H]21 28.2 µM [inhibitor, single point], CC1CN(C(=O)COC(=O)c2ccc(F)cc2Cl)CC(C)O1 (stereo unspecified) 3.55 µM [inhibitor, full curve, poor fit], COc1ccc(C2C3=C(CCCC3=O)Nc3ccc4ncccc4c32)cc1OC (stereo unspecified) 89.1 µM [inhibitor, partial curve], CCc1cccc(NC(=S)N(CCCN2CCOCC2)C(C)c2cc3cccc(OC)c3o2)c1 (stereo unspecified) 28.2 µM [inhibitor, full curve, poor fit], Cc1ccc(C2C(C(=O)c3cc4ccccc4o3)=C(O)C(=O)N2CCN(C)C)o1 (stereo unspecified) 28.2 µM [inhibitor, full curve, poor fit], Cc1noc(NS(=O)(=O)c2ccc(N/C=C\C(=O)c3cccc4ccccc34)cc2)c1C 56.2 µM [inhibitor, partial curve], CN(Cc1nc(Cc2ccccc2F)no1)[C@@H]1CS(=O)(=O)C[C@H]1O 100 µM [inhibitor, single point], O=c1[nH]c(C2CCN(S(=O)(=O)c3ccccc3F)CC2)nc2c1nnn2Cc1ccc(F)cc1 100 µM [inhibitor, single point], COC(=O)CNC(=O)c1cc(-c2ccncc2)nc2ccccc12 39.8 µM [inhibitor, single point], O=C1/C(=C\c2cc([N+](=O)[O-])ccc2O)SC(=S)N1Cc1ccc(Cl)cc1 50.1 µM [inhibitor, partial curve], C=CCN(c1cccc(C(F)(F)F)c1)S(=O)(=O)c1cccc(C(=O)OCC(=O)Nc2ccccc2)c1 3.55 µM [inhibitor, full curve, poor fit], COC(=O)c1sc(-c2ccc(Cl)cc2)cc1NC(=O)c1ccccc1C(=O)O 100 µM [inhibitor, single point], O=C(Nc1nnc(COc2ccc(Br)cc2)s1)c1ccco1 3.55 µM [inhibitor, full curve, poor fit], CCOC(CNC(=O)CN1C(=O)COc2ccc(S(=O)(=O)N3CC(C)CC(C)C3)cc21)OCC (stereo unspecified) 100 µM [inhibitor, single point], Cc1cccc(NC(=O)CS(=O)(=O)c2cn(C)c3ccccc23)c1 35.5 µM [inhibitor, full curve, poor fit], O=C1CC(c2ccccc2)n2nc(NC(=O)C3CCCO3)nc2N1 (stereo unspecified) 44.7 µM [inhibitor, single point], Cc1[nH]c2ccccc2c1C(=O)COC(=O)c1c(-c2ccccc2Cl)noc1C 50.1 µM [inhibitor, partial curve], CCc1cccc(CC)c1NC(=S)N(CCN(C)C)C(C)c1cccnc1 (stereo unspecified) 3.55 µM [inhibitor, full curve, poor fit], Cc1nc(C)c(-c2csc(Nc3ccc(C(=O)O)c(O)c3)n2)s1 44.7 µM [inhibitor, full curve], COc1cc(NC(=O)CN(C)S(=O)(=O)c2ccc3nc(C)sc3c2)cc(OC)c1 100 µM [inhibitor, single point], COc1cc(/C=C(\C#N)C(=O)Nc2cccc(C(=O)O)c2)ccc1OCc1ccc(F)cc1 100 µM [inhibitor, single point], COc1ccc(CNC(=S)Nc2ccc(F)c(Cl)c2)cc1OC 56.2 µM [inhibitor, partial curve, poor fit]

Potency, active:
CN(CCO)c1ccc(C=NNc2ccc([N+](=O)[O-])cc2S(=O)(=O)Nc2ccccc2C(=O)O)cc1 50.1 µM

Activity change, negative = inhibition, inconclusive:
CCOC(=O)C1=C(c2ccccc2)N=c2s/c(=C\c3ccco3)c(=O)n2C1c1cccs1 (stereo unspecified) -30.4% [inhibitor], CCc1ccc(NC(=O)CNS(=O)(=O)c2c(C)noc2C)cc1 -11.4% [inhibitor]
